One assay relates to SF-539 CNS. In words: NCI-60 one-dose screen, 48 h (100 = growth as untreated, 0 = no growth, -100 = all killed).
In a further assay the test system is M14 melanoma. Described as above. Conditions: 0.25 µM.

Some compounds were tested as several samples or in several runs, with calls that do not always agree.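 Method: cells in 96-well plates; compound added at one concentration; 48 h incubation; percent growth measured; values under 10 scored active.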 Certain results were filed several times, with different values. This list holds those alone. The source may hold further records. For part of these data: The screen tested this drug many times, at the concentration stated with the values; one value stands for one run. Counts like (3×) say how often a value occurs here. Some values that stand alone complete this part of the results. Activity calls are given as the source filed them.

Drawing on PubChem BioAssay (NCI), this text covers growth for one compound.

Take `COc1cccc2c1C(=O)c1c(O)c3c(c(O)c1C2=O)C[C@@](O)(C(=O)CO)C[C@@H]3OC1CC(N)C(O)C(C)O1` (stereo not given in full): the growth result is “inactive: 26.1, 44.5, 32.5, 29.4, 30, 32, 29.7, 28.4, 22.4, 24.7, 22.2, 30.3 (2×), 25.7, 30.6, 19.5 (2×), 23.9, 24.4 (2×), 24.9, 23.2, 23.3 (2×), 26, 24.5 (2×), 21.2, 27.1, 24.2, 32.7, 28.1, 19.8, 29, 35.8, 21.6, 25.3, 23.5 (2×), 23.7, 21.8, 22.7, 25.5 (2×), 29.8 (2×), 31.1, 35.6, 22.8, 20.4, 17.2, 16.4, 12.3, 15, 23.4, 19%” in the assay on SF-539 CNS (0.25 µM, runs of 2021); “active: -4.08, -3.13, -11.4, -4.37, 4.94, 8.37, 4.17, 7.73, 9.07% and inactive: 20.1, 22, 14.6, 10.4, 18, 13.1, 24.7, 14.3, 22.8, 12.8, 12.4, 41.2, 55.5, 20.6, 49.2, 39.5, 68.3, 12.9, 15.1%” in the assay with SF-539 CNS (0.25 µM, runs of 2022); “active: -100 (2×), -98.8 (2×), -92, -97.6, -96 (2×), -94.3, -98.9, -90.2, -91.7, -82.6, -98.2, -97.1, -80.6, -67.1, -80.8, -84.4%” with SF-539 CNS (25 µM, runs of 1991); “active: -98.8, -74, -65.8, -85.6, -55.3, -97.5 (4×), -93, -91.8, -76.5 (2×), -100 (5×), -90.6 (2×), -96.4 (2×), -75.2, -79.6 (2×), -74.7 (2×), -88.8, -89.5, -96.2, -94.1 (2×), -93.2 (2×), -93.6, -98.6 (2×), -71.7, -77.9, -82.3, -63.8, -88.9 (2×), -94.8, -91.9, -98.2, -99.2, -97, -92.5, -73.1, -88.2, -82, -64.4, -98.3 (2×), -99, -98.4, -93.5, -99.3 (2×), -91, -68.7, -72.1, -63.6, -82.7, -96.7 (3×), -97.1 (2×), -49.4, -98.1, -25.2, -66.8, -62.1, -70.4, -66.4, -78.2, -82.2, -90.8, -99.9, -80.7, -56, -93.1, -90.2, -83.9, -97.2 (2×), -83.3, -94.4, -95.7, -68.3, -99.4, -58.8, -53.6, -85.9, -79.1, -87, -97.8, -35.3, -81.3, -16.4, -96.5, -84, -91.1, 0.556, -86.5, -84.4, -92.9%” with SF-539 CNS (25 µM, runs of 1992); “active: -58.2, -85.6, -51.5, -96.1, -77.2, -99.6, -57.2, -56, -47.8 (2×), -82.2, -99.5, -96.6, -8.84, -70.5, -68.3, -64.4, -100, -94 (2×), -76.9, -73.7, -71.6, -94.8, -95.5, -54.9, -84.5, -71.2, -91.2, -72.2, -87.4, -95.9, -11.6, -79.2, -82.6, -48.2, -84.7, -66.5, -87.3, -89.6, -62.5, -88.5, -99.4, -80.9, -91.8%” with SF-539 CNS (25 µM, runs of 1993); “active: -43.3, -85.2, -36.3, -93.2, -46, -85, -82.9 (2×), -87.5, -58, -50.4, -88.3, -87.6, -66.7, -51.5, -100, -53.8, -65, -95.6, -48.9, -95.7, -96.1, -64.3, -50.6, -82, -98.2, -16.3, -43.6, -90.6, -41, -31.6, -93.5%” in the assay on SF-539 CNS (25 µM, runs of 1994). In addition, the growth entry with SF-539 CNS (25 µM, runs of 1995) was “active: -43.9, -100, -56.5 (2×), -33.2, -10.5, -91.4, -93.6, -26, -47, -86.8, -61.2, -62.4, -59.5, -71.1, -78.1, -18.7, -80.6, -88, -90.5, -51.7, -96.7, -99.4, -29.6, -26.8, -54.9, -42.5, -42, -85.8, -24.8, -62.1, -40.9, -56.3, -82.9, -74, -59.4, -80.1, -37, -76.7%”; in the assay with SF-539 CNS (25 µM, runs of 1996) it was “active: -63.5, -38.3, -88.4, -38, -64.6, -59, -82.2, -39.1, -15.6, -48, -49.3, -80.6, -59.3, -63.2, -66.9, -57.7, -0.924, -49.1, -93.4, -67.9, -41.2, -58.6, -41.1, -29.6, -70.6, -74.8, -94, -48.7, -54.2, -36.8, -14.9, -32.4, -98.2, -87, -79.5, -68.6, -61.7, -42.5, -88, -88.7, -100, -45.5, -66.7, -90.7, -65.2, -72.5, -66.4% and inactive: 98.3%, 44.5%, 28.5%”; in the assay with SF-539 CNS (25 µM, runs of 1997), “active: 0, -63, -95.1, -47.2, -55, -68, -33.3, -45.2, -63.5, -83.8, -53.7, -90.3, -59.8, -56.3, -41.4, -97.2, -76, -93.6, -65.8, -37, -71.7, -75.9, -83.6, -69.3, -86, -9.05, -65.5, -71.4, 7.48, -46, -37.3, -76.6, -68.5% and inactive: 86.9%”; in the assay with SF-539 CNS (25 µM, runs of 1998), “active: -66.5, -64.9, -92.9, -44.3, -19.5, -18.8 (2×), -70.3, -93.6, -72, -80.2, -76.7, -54.5, -68.4, -58.2, -73.7, -41.4, -74.8, -48.4%”; in the assay with SF-539 CNS (25 µM, runs of 1999), “active: -56.2, -19, -72.6, -97.9, -53.5, 0.143, 0.366, -20, 3.26, -8.51% and inactive: 20.4%”; with SF-539 CNS (25 µM, runs of 2000), “active: -88.8, -100, -40.9, -71.5%”. Further, the growth in the assay with M14 melanoma (runs of 2006) is inactive: 42.3%; in the assay with M14 melanoma (runs of 2007) it was “inactive: 29.7, 40.5, 39.9, 51.5, 53.3, 46.6, 56.1, 64.1, 54.4, 47.5, 58.7, 50.9, 54.2, 55.4, 52.5, 54.9, 59.5, 48.8, 74.9, 58, 44.2, 47, 36.6, 51.6, 73.8, 62.3, 63.7, 57.4, 24.3, 68.5, 60.2, 45, 53.1, 73.4, 65.7, 48.5, 43.9, 46.4, 50.4, 60.5%”; in the assay with M14 melanoma (runs of 2008), “inactive: 62.5, 39.3, 53.2, 51, 53.7, 53.4, 52.6, 53, 58.6, 56.5, 62, 65, 64.2, 62.4, 28.6, 42.2, 46.2, 49.1, 46.6, 45.8, 41, 32.6, 38.3, 40.5, 34.4 (2×), 38.9, 46.3, 45.9, 99, 46.5, 20, 26.8, 43.1, 22.5, 28.2, 39.1, 37.5, 40.9, 62.2, 60.5, 57.9, 47.8, 59.7, 59.5, 71.4, 65.4, 47.2, 56.2, 18.2, 42.7, 47.3%”.
